Out of some 45,000 compounds screened, about 200 (0.44%) were called active. Another 7% or so got no clear call; they are omitted. Calls follow the shape of the dose curve; as a rule, active = well fitted activation curve with a large enough effect; inconclusive = small, poorly fitted or top-dose-only effect; inactive = no such curve, though single readings can be large or run the other way. The list shows a part of the results.
Experiment: qHTS of TDP-43 Inhibitors: NCGC Sytravon Library Screen; also: nearly all actives have a fitted effect of over 55% in size; as to growth rescue (activation): 0% is about no effect
Conditions: yeast TDP-43 toxicity rescue, BacTiter-Glo growth, 24 h; series mostly up to 46.1 µM; growth rescue (activation): at the top concentration
Method in brief: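 TDP-43-expressing yeast, pregrown in raffinose, seeded at OD600 0.02 in galactose medium with compound for 24 hr at 30 deg C. Growth read by BacTiter-Glo luminescence, so rescue of toxicity appears as activation.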
Potency is read from the fitted curve at half-maximal effect.

Row | SMILES | growth rescue (activation) | Potency
1 | CSc1nc(C)c2c(n1)N(c1ccc(F)cc1)CC2 | inactive: 42% | 
2 | CC(=O)Nc1ccccc1C(=O)C(=O)Nc1cccc(C(=O)NCc2ccccc2)c1 | inactive: 12.3% | 
3 | CC(NC(=O)/C=C/c1ccco1)c1nc2ccccc2n1Cc1cccc(Cl)c1 (centres undefined) | inactive: -8.8% | 
4 | COc1ccc(NC(=O)Nc2ccc(CC(=O)O)cc2)cc1 | inactive: -6.14% | 
5 | Cc1ccc(C(=O)N/N=C2\CC3CC=CC23)c(C)c1 (centres undefined) | inactive: 2.44% | 
6 | Cc1sc(NC(=O)c2ccco2)c(C(=O)c2ccc(Cl)cc2)c1C | inactive: 10.5% | 
7 | CN(C)CCn1nnc2c(=O)oc3ccccc3c21 | inactive: 13.2% | 
8 | Cn1c(SCC(=O)Nc2ccccc2)nnc1C(F)(F)F | inactive: 5.44% | 
9 | O=C(NCc1ccc(F)cc1)C(c1cccnc1)N(C(=O)c1csnn1)c1ccccc1 (centres undefined) | inactive: -9.02% | 
10 | CCOC(=O)CC1C(=O)NCCN1C(=O)COc1ccc(C(C)(C)C)cc1 (centres undefined) | inactive: 2.59% | 
11 | Nc1nc(O)c(Sc2ccccc2[N+](=O)[O-])c(=O)[nH]1 | inactive: 2.63% | 
12 | COc1ccc(CCC(=O)NCCCNC(=O)CCc2ccc(OC)cc2)cc1 | inactive: 14.7% | 
13 | COc1cc(Br)cc(C=Nc2cccc(C(F)(F)F)c2)c1O | inactive: 20.4% | 
14 | NC(=O)c1ccccc1OCC(=O)N1CCc2ccccc2C1 | inactive: 3.84% | 
15 | O=[N+]([O-])c1ccc(N2CCN(S(=O)(=O)c3ccc4ccccc4c3)CC2)cc1NCC1CCCO1 (centres undefined) | inactive: 5.19% | 
16 | NC(Cc1ccc(C(F)(F)F)cc1)c1csc(NC(=O)NCCc2ccccc2)n1 (centres undefined) | inactive: 12.7% | 
17 | Cc1ccc(S(=O)(=O)Nc2cnn(-c3ccccc3)c(=O)c2Cl)cc1 | inactive: -21.9% | 
18 | CCOC(=O)C1CCN(C2=C(NS(=O)(=O)c3ccc(Cl)cc3)C(=O)c3ccccc3C2=O)CC1 | inactive: -17.1% | 
19 | CC1(C)CC(=O)c2c(oc3ccc(NS(=O)(=O)c4cccc5cccnc45)cc23)C1 | inactive: 18.1% | 
20 | Cc1nc(Nc2ccc(C(=O)O)cc2)nc(Nc2ccc(C(=O)O)cc2)c1[N+](=O)[O-] | inactive: 6.53% | 
21 | O=C(CSCc1ccc(Cl)cc1)Nc1cc([N+](=O)[O-])ccc1O | inactive: -35.3% | 
22 | COC(CNC(=O)c1ccc2c(c1)ncn2-c1cc(C)cc(C)c1)OC | inactive: 2.65% | 
23 | O=[N+]([O-])c1ccc(Nc2ccccn2)c([N+](=O)[O-])c1 | inactive: 7.32% | 
24 | O=C(CO/N=C/c1ccc(OC(F)F)cc1)NC1CCCC1 | inactive: 5.13% | 
25 | Cc1cc2nc(CSc3ccc(Cl)cc3)cc(=O)n2[nH]1 | inactive: 0.556% | 
26 | CN(c1ccccc1C(=O)Nc1ccc(F)c(Cl)c1)S(C)(=O)=O | inactive: 11.2% | 

Row | SMILES | growth rescue (activation) | Potency
27 | Cc1cc(NC(=O)CSc2nnnn2-c2ccc(C)c(Cl)c2)no1 | inactive: -9.81% | 
28 | CCn1c(SCC(=O)NCCc2ccccc2)nnc1C(C)C | inactive: -1.26% | 
29 | O=c1oc2cc(O[C@@H]3OC[C@@H](O)[C@H](O)[C@H]3O)ccc2c2ccccc12 | inactive: 8.99% | 
30 | CC1CN(CC(=O)Nc2ccccc2Sc2ccccc2)CC(C)O1 (centres undefined) | inactive: -7.59% | 
31 | CCCC(C)NC(=O)COC(=O)c1ccc2c(c1)C(=O)N(Cc1ccco1)C2=O (centres undefined) | inactive: 2.3% | 
32 | COC(=O)c1cc2sc(C)cc2n1Cc1nc(-c2cccc(Br)c2)oc1C | inactive: 6.69% | 
33 | O=C(O)c1ccc(NC(=S)NC2CCCCC2)cc1 | inactive: 23.1% | 
34 | CCCNC(=O)COC(=O)c1ccccc1C(=O)c1ccc(Cl)c([N+](=O)[O-])c1 | inactive: -19.9% | 
35 | CCN(CC)S(=O)(=O)c1ccc(O)c(NC(=O)c2cc(-c3cc(OC)c(OC)c(OC)c3)nc3ccccc23)c1 | inactive: 16.3% | 
36 | O=C(NCc1ccccn1)c1ccc(CS(=O)(=O)Cc2ccc(Cl)cc2)o1 | inactive: 25.9% | 
37 | Cc1nc(C)n(CCNS(=O)(=O)c2ccccc2)n1 | inactive: -8.05% | 
38 | COc1cc(NC(=O)CN2C(=O)C(c3ccc(C)cc3)=NC23CCCCCC3)cc(OC)c1 | inactive: 10.5% | 
39 | CCCCN=C1SC(C(=O)Nc2sc3c(c2C(=O)OC)CCC3)C(N)=C1C(=O)N1CCOCC1 (centres undefined) | inactive: -21.7% | 
40 | COc1cc(C(=O)Oc2ccccc2/C=N/NC(=O)c2ccc(Cl)cc2Cl)cc(OC)c1OC | inactive: -18.9% | 
41 | O=C(O)CCn1cc(/C=C/C(=O)c2ccc(Cl)cc2)c(-c2cccc(Br)c2)n1 | inactive: 15% | 
42 | CC1(C)N=C(c2ccc(F)cc2)C(=O)N1CC(=O)Nc1ccccc1Cl | inactive: 14.9% | 
43 | O=c1cc(CO)oc(C(Nc2ccccn2)c2ccccc2Cl)c1O (centres undefined) | inactive: 2.89% | 
44 | Cc1ccc(Cn2c3ccccc3c3cnn(CC(=O)N4CCCCCC4)c(=O)c32)cc1 | inactive: 3.59% | 
45 | COCCn1c(SCC(=O)N2CC(=O)Nc3ccccc32)nc2ccccc2c1=O | inactive: 12.5% | 
46 | CC(=O)NCCNc1ccc([N+](=O)[O-])cn1 | inactive: 14.8% | 
47 | CCc1ccc2c(CN(C)Cc3ccc(OC(F)F)c(OC)c3)cc(=O)oc2c1 | inactive: 3.52% | 
48 | CCSc1nnc(NC(=O)Nc2cccc(C)c2)s1 | inactive: 2.05% | 
49 | Cc1ccc(S(=O)(=O)n2nc(C)c(Br)c2C)c(C)c1C | inactive: 25.7% | 
50 | COc1ccc(N(C(C)C(=O)Nc2ccc(S(=O)(=O)N3CCCCC3)cc2)S(C)(=O)=O)cc1 (centres undefined) | inactive: 2.94% | 
51 | CCN(CCn1cccn1)C(=O)CCc1nnc(CCCc2ccccc2)o1 | inactive: 4.58% | 
52 | CCCc1nnc(NC(=O)CCS(=O)(=O)Cc2ccccc2)s1 | inactive: -3.05% | 

Row | SMILES | growth rescue (activation) | Potency
53 | O=C(CON=C1c2ccccc2-c2ccccc21)NC12CC3CC(CC(C3)C1)C2 | inactive: -9.46% | 
54 | COc1ccc(-n2c(O)c(/C=N/NS(=O)(=O)c3cccc([N+](=O)[O-])c3)c3ccccc3c2=O)cc1OC | inactive: -8.92% | 
55 | O=C(c1cc2ccccc2oc1=O)N(Cc1cccc(Br)c1)C1CCS(=O)(=O)C1 (centres undefined) | inactive: 2.81% | 
56 | NS(=O)(=O)c1ccc(CCNC(=O)CC(NC(=O)c2ccccc2Cl)c2ccccc2)cc1 (centres undefined) | inactive: 0.413% | 
57 | Cc1c(NC(=O)C(C)OC(=O)c2c3c(nc4ccccc24)CCC(C)C3)c(=O)n(-c2ccccc2)n1C (centres undefined) | inactive: 22.5% | 
58 | COC(=O)c1cc(CNC(=O)CC(C)c2ccccc2)ccc1OC (centres undefined) | inactive: -1.9% | 
59 | Cc1cccc(C)c1C(O)c1ncc(-c2cccc(C(F)(F)F)c2)[nH]1 (centres undefined) | inactive: 10.2% | 
60 | Cc1ccc(SCC(=O)NC(=O)NC(C)C)c(C)c1 | inactive: 31.3% | 
61 | CC(=O)Nc1ccc(-c2csc(Nc3cccc(C)n3)n2)cc1 | inactive: 15% | 
62 | C=CCN(C(=O)c1csnn1)C(C(=O)NCc1ccccc1)c1ccccc1F (centres undefined) | inactive: 0.592% | 
63 | COC(=O)C1=C(C)NC(C)=C(C(=O)OC)C1C(=O)OCCN1C(=O)c2ccccc2C1=O | inactive: -1.54% | 
64 | CCc1ccc(CN(C)Cc2nc(-c3cccc(Cl)c3)no2)nc1 | inactive: 10.5% | 
65 | CCN(CC)c1ncnc2c1ncn2[C@H]1CN(Cc2ccc3c(c2)OCO3)C[C@@H](CO)O1 | inactive: -5.42% | 
66 | COc1ccc(NC(=O)Cc2coc3cc(C)c(C(C)C)cc23)cc1S(=O)(=O)N1CCOCC1 | inactive: 26.5% | 
67 | Cc1ccc(S(=O)(=O)N(Cc2cccnc2)Cc2cc3ccccc3[nH]c2=O)cc1 | inactive: -2.28% | 
68 | CCN(c1ccccc1)S(=O)(=O)c1cc(C(=O)NCC(c2ccco2)N2CCCCC2)ccc1C (centres undefined) | inactive: -12.5% | 
69 | Cc1ccc(/C=C2\CCC3=C2OC(N)=C(C#N)C3c2ccc(C)cc2)cc1 (centres undefined) | inactive: 6.93% | 
70 | C=CCOc1ccccc1NC(=O)CN1C(=O)CNC1=O | inactive: 6.81% | 
71 | COc1ccc(NC(=O)CN(C)S(=O)(=O)c2ccc3nc(C)sc3c2)cc1Cl | inactive: 4.4% | 
72 | COc1ccc(C(=O)NC2CCN(C(=S)Nc3ccccc3)CC2)cc1 | inactive: 9.54% | 
73 | Cc1cc(C)nc(SC2CCCCC2NS(=O)(=O)c2ccccc2)n1 (centres undefined) | inactive: 23.8% | 
74 | Cc1ccc(S(=O)(=O)Nc2ncnc3ccccc23)cc1 | inactive: -11.2% | 
75 | CSc1ccccc1NC(=O)CN(C)CC(=O)Nc1ccc(S(=O)(=O)N2CCCC2)cc1 | inactive: -2.24% | 
76 | COc1cc(Cl)cc(C(=O)O)c1OCC(=O)O | inactive: -11.9% | 
77 | CC(CNC(=O)c1ccc(C(C)(C)C)cc1)CN(C)C (centres undefined) | inactive: 7.23% | 
78 | CCOC(=O)N1CCN(C(=O)c2ccc3c(=O)n(CCOC)c(=O)[nH]c3c2)CC1 | inactive: 16.3% | 

Row | SMILES | growth rescue (activation) | Potency
79 | O=C1C=C(N2CCCCCC2)C2(CCCCC2)O1 | inactive: 1.85% | 
80 | O=S(=O)(c1cccc(NC(=S)Nc2ccc(Br)cc2Cl)c1)N1CCOCC1 | inactive: 23.7% | 
81 | CC(O)CNc1nc2ccccc2n1CC(=O)NCCc1ccc(Cl)cc1 (centres undefined) | inactive: 8.84% | 
82 | COc1ccc(/C=N/Nc2ccccn2)cc1OC | inactive: 9.11% | 
83 | CC1CCCN(C(=O)CNS(=O)(=O)c2cccs2)C1 (centres undefined) | inactive: 6.22% | 
84 | CC(=O)NC(Cc1ccc(F)cc1)C(=O)NC1CCN(C(=O)Nc2cccc(C)c2)CC1 (centres undefined) | inactive: 0.764% | 
85 | Cc1ccc(-n2c(SCc3nc4ccccc4c(=O)[nH]3)nnc2-c2ccccc2O)cc1 | inactive: -13.3% | 
86 | CC(C)N(C(=O)CN1C(=O)C(=O)c2ccccc21)c1ccccc1 | inactive: 33.2% | 
87 | O=[N+]([O-])c1ccc(N2CCN(c3ccccc3O)CC2)c(Cl)c1 | inactive: 23.9% | 
88 | CCC(c1nnc(SCC(=O)Nc2cccc(S(N)(=O)=O)c2)n1-c1ccc(OC)cc1)N(C)C (centres undefined) | inactive: 23.1% | 
89 | CCCC(=O)NC(=S)Nc1cccc2c(O)cccc12 | inactive: 3.38% | 
90 | COc1ccc(CCN(C)C(=O)c2ccc(S(=O)(=O)NCc3ccco3)cc2)cc1OC | inactive: -29.2% | 
91 | COc1cc(C=C(c2nc3ccccc3s2)c2nc3ccccc3s2)cc(OC)c1O | inactive: 23.4% | 
92 | Fc1cccc(F)c1/C=C/c1ccc2ccccc2n1 | inactive: -7.85% | 
93 | COc1ccc(OCC(=O)O/N=C(\N)Cc2cccs2)cc1 | inactive: -7.39% | 
94 | S=C(NCCc1ccccc1)NCC(c1ccco1)N1CCCCC1 (centres undefined) | inactive: 11.7% | 
95 | Cc1nn(Cc2ccc(Cl)cc2)c(Cl)c1/C=N/NC(=O)c1cccnc1 | inactive: 11.1% | 
96 | CCOC(=O)c1sc(-n2[nH]c(C)cc2=O)nc1C | inactive: 27.3% | 
97 | O=c1c2c3c(sc2nc(NCCO)n1Cc1ccco1)CCCCC3 | inactive: 12.7% | 
98 | Cc1cccc(OCc2nnc(SCC(=O)N3c4ccccc4Sc4ccc(Cl)cc43)o2)c1 | inactive: 21.6% | 
99 | O=Cc1cn[nH]c1-c1cccc([N+](=O)[O-])c1 | inactive: 6.44% | 
100 | CCCCN(CC(=O)NCc1ccc(F)cc1)C(=O)c1ccco1 | inactive: 9.68% | 
101 | CCc1ccc(OC(C)C(=O)N(Cc2ccccc2)C2CCS(=O)(=O)C2)cc1 (centres undefined) | inactive: 12.3% | 
102 | COC(=O)Cc1c(C(=O)OC)nnn1-c1ccc(OC)cc1 | inactive: -14.4% | 
103 | O=C(O)c1ccccc1CSc1nc2ccccc2s1 |  | active: 11.2 µM
104 | COc1ccc(NC(=O)Cc2ccc(C)cc2)c([N+](=O)[O-])c1 | inactive: 23.5% | 

— PubChem BioAssay AID1347073 (National Center for Advancing Translational Sciences (NCATS), 2019)
